Source: PubChem BioAssay AID588342 (National Center for Advancing Translational Sciences (NCATS), 2011)
Out of some 360,000 compounds screened, about 25,000 (6.9%) were called active. This list was built around the results that the source calls inconclusive (neither active nor inactive); the mix of calls is not that of the screen. Calls follow the shape of the dose curve; as a rule, active = well fitted inhibition curve with a large enough effect; inconclusive = small, poorly fitted or top-dose-only effect; inactive = flat fitted curve, though single readings scatter. A potency beside an inconclusive call is a rough fit, not a confirmed value.

The compounds below were run against Luciferin 4-monooxygenase (Photinus pyralis) (UniProt P08659) (assay: qHTS profiling assay for firefly luciferase inhibitor/activator using purifed enzyme and Km concentrations of substrates (counterscreen for miR-21 project)). Conditions: purified FLuc, luminescence inhibition; series mostly up to 57.5 µM.
Sequence of UniProt P08659 (P08659 whole entry, looked up): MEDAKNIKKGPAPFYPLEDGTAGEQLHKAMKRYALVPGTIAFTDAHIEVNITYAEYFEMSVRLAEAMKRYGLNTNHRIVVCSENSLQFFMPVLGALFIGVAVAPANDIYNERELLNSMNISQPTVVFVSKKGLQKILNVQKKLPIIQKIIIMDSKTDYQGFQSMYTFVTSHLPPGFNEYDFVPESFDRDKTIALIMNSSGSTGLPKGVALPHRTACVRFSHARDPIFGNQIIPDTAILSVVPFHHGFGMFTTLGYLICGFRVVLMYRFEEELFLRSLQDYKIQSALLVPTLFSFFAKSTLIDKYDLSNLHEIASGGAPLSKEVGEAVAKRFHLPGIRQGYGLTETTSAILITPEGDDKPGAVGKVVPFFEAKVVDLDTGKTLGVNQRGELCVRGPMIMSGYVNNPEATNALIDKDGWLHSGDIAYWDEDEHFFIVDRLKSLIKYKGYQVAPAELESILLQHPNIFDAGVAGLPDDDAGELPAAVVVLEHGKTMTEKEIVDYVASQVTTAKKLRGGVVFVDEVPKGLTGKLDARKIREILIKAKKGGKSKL
How it was run: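 Purified P. pyralis luciferase, 10 nM final, with Km-level 10 uM D-luciferin and 10 uM ATP in 50 mM Tris acetate pH 7.5, 10 mM Mg acetate, 0.01% Tween-20, 0.05% BSA; 6-point qHTS titration about 60 µM downward; luminescence read.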
Also: nearly all actives have a fitted effect of over 55% in size.
Potency is read from the fitted curve at half-maximal effect; tags tell the direction and shape of the fitted curve.

SMILES	Potency
Cc1ccc(CNC(=O)CCCc2nnc3n(CC(C)C)c(=O)c4sccc4n23)cc1	inactive
Cc1ccc(C(=O)N/N=C\c2cc(Br)c(Br)o2)cn1	inconclusive: 37.9 µM [inhibitor, partial curve, poor fit]
COc1ccc2nc(SCCOC(=O)Nc3ccc(Cl)cc3)nc(C)c2c1	inconclusive: 33.8 µM [inhibitor, partial curve, poor fit]
Cc1ccc(NC(=S)Nc2ccc(Br)cc2)cc1	inconclusive: 8.49 µM [inhibitor, partial curve, poor fit]
O=C(NCc1cccc(F)c1)C1CCC(=O)N(C2CC2)C1 (stereo unspecified)	inactive
COc1cc(S(=O)(=O)NC2CCCCC2)ccc1Cl	inconclusive: 8.49 µM [inhibitor, partial curve, poor fit]
Cc1cc(Nc2ccc(O)cc2)ccc1N	inconclusive: 13.5 µM [inhibitor, single point]
CC(=O)N1CCc2cc(S(=O)(=O)NC(Cc3ccccc3)C(=O)NCc3ccccc3Cl)ccc21 (stereo unspecified)	inactive
COCc1oc2ccc(NS(=O)(=O)c3ccc(C)cc3)cc2c1C(=O)OC	inconclusive: 23.9 µM [inhibitor, single point]
COc1ccc(C2C(CC(=O)O)=C(Nc3ccccc3)C(=O)N2c2ccccc2)cc1 (stereo unspecified)	inconclusive: 19 µM [inhibitor, partial curve]
O=C(CSc1nc2ccccc2[nH]1)N/N=C/c1ccco1	inconclusive: 19 µM [inhibitor, partial curve]
CC(=O)Nc1ccc(NC(=O)C(NS(=O)(=O)c2ccc(Br)s2)c2ccccc2)cc1 (stereo unspecified)	inconclusive: 13.5 µM [inhibitor, partial curve, poor fit]
CCC(=O)NC(=S)NNC(=O)COc1ccc(Br)cc1	inconclusive: 37.9 µM [inhibitor, single point]
COc1ccc(NC(=O)c2cccc(-n3cnnn3)c2)cc1	inactive
CCCc1cc(C(=O)NCc2cccs2)no1	inconclusive: 30.1 µM [inhibitor, single point]
COC(=O)c1sccc1NC(=S)Nc1cc(C)ccc1OC	inactive
CCNC(=S)Nc1ccc(OCC)cc1	inactive
CCOC(=O)C1CCCN(C(=O)c2ccc3nc(-c4cccc(OC)c4)oc3c2)C1 (stereo unspecified)	inconclusive: 2.39 µM [inhibitor, partial curve]
COc1ccc(-c2sc3ccccc3c2C#CCO)cc1	inconclusive: 16.9 µM [inhibitor, partial curve]
O=C(Oc1ccc(-c2cnc3ccccc3n2)cc1)c1ccc(Cl)c([N+](=O)[O-])c1	inconclusive: 5.36 µM [inhibitor, partial curve, poor fit]
O=C(CCCNC(=O)c1ccc(Cl)cc1)Nc1ccccc1C(F)(F)F	inactive
COc1cc(C(=O)NCc2ncccc2C)ccc1OC1CCN(C(C)=O)CC1	inactive
O=C(NNc1c([N+](=O)[O-])cc(C(F)(F)F)cc1[N+](=O)[O-])c1ccco1	inconclusive: 23.9 µM [inhibitor, partial curve, poor fit]

SMILES	Potency
CCOC(=O)CCCC(=O)N1CCOCCOCCN(C(=O)CCCC(=O)OCC)CCOCCOCC1	inconclusive: 26.9 µM [inhibitor, partial curve]
CCOC(=O)c1cc(-c2csc(COc3ccccc3Cl)n2)on1	inconclusive: 37.9 µM [inhibitor, partial curve, poor fit]
Cc1c(SCCO)c(=O)[nH]c2cc3c(cc12)OCO3	inactive
C=CCN1C(=O)/C(=C/C=C2/N(CC)c3ccc(S(=O)(=O)N(C)C)cc3N2CC)SC1=S	inconclusive: 21.3 µM [inhibitor, partial curve, poor fit]
Cc1ccc2oc(C(Cl)(Cl)Cl)cc(=O)c2c1	inconclusive: 37.9 µM [inhibitor, single point]
COC(=O)c1ccc(-n2c(/C=C/c3cc(OC)c(OC)c(OC)c3)nc3cc(Cl)ccc3c2=O)cc1	inactive
Cc1ccc(C(=O)C(OC(=O)c2cnccn2)c2ccccc2)cc1 (stereo unspecified)	inconclusive: 23.9 µM [inhibitor, partial curve, poor fit]
CCCC(=O)Nc1ccccc1C(=O)OCc1cc(=O)n2nc(C(C)C)sc2n1	inactive
O=C(NNC(=O)c1cc2ccccc2cc1O)c1cccs1	active: 12 µM
CCOC(=O)c1cc(S(=O)(=O)NCc2ccc(OC)cc2)[nH]n1	inconclusive: 12 µM [inhibitor, partial curve, poor fit]
COC(C(=O)N1CCC(n2nccc2NC(=O)C2CC2)CC1)c1ccccc1 (stereo unspecified)	inconclusive: 26.9 µM [inhibitor, single point]
CCC(=O)N1CCCc2cc(S(=O)(=O)N3CCC(C(=O)Nc4ccc(C#N)cc4)CC3)ccc21	inactive
O=C(CSc1nnc(CNC(=O)c2ccccc2F)o1)Nc1ccc2c(c1)OCCO2	inconclusive: 26.9 µM [inhibitor, single point]
O=S(=O)(NCc1ccccc1)c1ccccc1Br	inactive
CC(=C/c1ccccc1)/C=N/NC(=O)c1ccc2nc[nH]c2c1	active: 5.36 µM
N#Cc1ccc(Cn2ccnc2C(=O)Nc2ccccc2)cc1	inconclusive: 37.9 µM [inhibitor, partial curve, poor fit]
CCN(CC)c1ccc2c(Cl)cc(=O)oc2c1	inconclusive: 21.3 µM [inhibitor, partial curve, poor fit]
Cc1ccc(NC(=O)c2c(C)oc3ncn(CC(C)C)c(=O)c23)nc1	inactive
COc1ccc(C(=O)NC(=S)NC2CCCCC2)cc1	active: 15.1 µM
Cc1ccc(/C=N/NC(=O)c2ccc3nc[nH]c3c2)s1	inconclusive: 19 µM [inhibitor, partial curve]
CCOC(=O)c1ccc(-c2ccc(C3Nc4ccccc4C(=O)N3O)o2)cc1 (stereo unspecified)	inconclusive: 37.9 µM [inhibitor, single point]
COc1ccc2oc(C(=O)Nc3nnc(C)s3)c(C)c2c1	active: 0.601 µM
Cc1sc2ncn3cnnc3c2c1C	inactive
